# Laboratory results reported in the supplement of paper PMC10441789.
# The list shows a part of the results. Antibody binding of pooled human sera (four to six donors per pool; dilution not stated) to peptides of the Trypanosoma cruzi antigen TSSA on microarrays. Quantile-normalised fluorescence in arbitrary units, mean of duplicate arrays; higher = more binding. No active / inactive call. The uninfected pools are read here as the healthy donors of the same country. The strongest signals lie near the top of the scale (about 60,000).
# Test system: pooled sera of uninfected people, Colombia
# Experiment: antibody binding signal (normalised fluorescence) (arbitrary fluorescence units); higher = stronger serum antibody binding to peptide
# Experimental: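 Microarray of 15-residue peptides over residues 30-55 of Trypanosoma cruzi TSSAII, each with 1 to 10 substitutions at naturally variable positions, probed with one serum pool per country.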
row,Sequence,antibody binding signal
1,DNKAAAGEAPSPSGA,176
2,KKAAAGGAPSQSGAS,102
3,GKDKKAAAGEAPSQP,98.9
4,KENKAAAGGAPSQSG,93.4
5,TDNKTATGETPSQSG,127
6,PSGTDNKPAAGETPS,542
7,KDKKAAAGGTPSQPG,142
8,GTDKKAATGETPSQP,520
9,GTENKAATGGTPSPP,414
10,GKEKKAATGGAPSQP,170
11,SGKDNKTATGGTPSQ,402
12,KKAAAGETPSPPGAS,132
13,DKKPAAGETPSQPGA,774
14,ENKPAAGGAPSQSGA,146
15,KTATGETPSPSGASS,123
16,SGTDKKPATGGTPSQ,430
17,DKKPATGGAPSPPGA,159
18,KDKKTATGGTPSQPG,107
19,TPPSGTDKKAAAGGA,232
20,EKKPATGGTPSQPGA,496

row,Sequence,antibody binding signal
1,PSGTENKTAAGETPS,375
2,TPPSGKDNKTAAGGT,216
3,SGKEKKPATGGAPSP,117
4,KEKKAAAGETPSPPG,97.2
5,TDKKTAAGGAPSQSG,159
6,GKDKKTATGETPSQP,104
7,DNKTATGEAPSPPGA,153
8,DNKTATGETPSPSGA,157
9,GTENKPATGGAPSQS,193
10,GKDKKTATGEAPSQS,89.7
11,TDKKPATGGTPSQSG,192
12,PSGKDNKTAAGGAPS,164
13,KKTATGGTPSQSGAS,135
14,GTEKKPATGETPSPS,201
15,TPPSGKENKAATGET,899
16,TDNKAAAGETPSPSG,102
17,TPPSGTENKPAAGGA,784
18,EKKPAAGETPSPPGA,138
19,TDKKAAAGEAPSPPG,103
20,PSGTEKKTAAGETPS,1220
